Measurements: the supplement of paper PMC4967469
Lines with a small IC50 respond at low doses; fits outside the tested doses are given as limits. AUC, from the same fit, is the share of area under the viability curve across the 256-fold dose range: 1 means no effect, lower means more sensitive. For part of these data: A top dose marked as inferred was calculated from the reported fits. For part of these data: Where an entry number is given, a second screen of the drug exists; the two often differ.

What was measured:
Assay in all cases: Viability of human cancer cell lines after 72 h of drug (GDSC screen)
[1] = compound: C#Cc1cccc(Nc2ncnc3cc(OC)c(OCCCCCCC(=O)NO)cc23)c1 [CUDC-101]; conditions: top dose 5.12 µM; top dose inferred
Method: (§1)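 Human cancer cell lines in 384-well plates, medium with 10% serum, drug for 72 h over a 256-fold dose range (nine 2-fold or five 4-fold steps up to the top dose). Adherent lines were fixed and stained with the nucleic acid dye Syto60, suspension lines read with resazurin; signal relative to control wells, capped at 0 and 100%. One two-parameter sigmoid per drug and line, fitted in a mixed model over all curves with the slope shared within a line.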

[2] = compound: CC(C)(C)c1cc(NC(=O)Nc2ccc(-c3cn4c(n3)sc3cc(OCCN5CCOCC5)ccc34)cc2)no1 [AC220]; conditions: top dose 1.024 µM; top dose inferred
Method: as §1

[3] = compound: COc1cc(F)c(F)c(Nc2ccc(I)cc2F)c1NS(=O)(=O)C1(C[C@H](O)CO)CC1 [RDEA119]; conditions: top dose 5 µM, top dose inferred
Method: as §1

[4] = compound: Fc1cc(-c2ccnc(Nc3ccc(-n4cnc(N5CCOCC5)n4)cc3)n2)cc(N2CCOCC2)c1 [JNK-9L]; conditions: top dose 5.12 µM; top dose inferred
Method: as §1

[5] = compound: NCC(=O)Nc1ccc(-n2nc(C(F)(F)F)cc2-c2ccc3c(ccc4ccccc43)c2)cc1 [OSU-03012]; conditions: top dose 16 µM; top dose inferred
Method: as §1

[6] = compound: O=c1[nH]cc(F)c(=O)[nH]1 [5-Fluorouracil]; conditions: top dose 32 µM; top dose inferred
Method: as §1

[7] = compound: OC[C@H](Cc1ccccc1)Nc1nc(Oc2ccc3c(c2)CCC3)nc2c1ncn2Cc1ccc(-c2ccccc2)cc1 [QS11]; conditions: top dose 10.24 µM
Method: as §1

## NCI-H2444 (non-small cell lung carcinoma, adherent)
[1]
  AUC: 0.625
  IC50: 0.745 µM
[2]
  AUC: 0.988
  IC50: > 1.02 µM
[3]; screen: GDSC drug entry 1014
  AUC: 0.869
  IC50: > 5 µM
[3]; screen: GDSC drug entry 1526
  AUC: 0.95
  IC50: > 5 µM
[4]
  AUC: 0.93
  IC50: > 5.12 µM
[5]
  AUC: 0.909
  IC50: > 16 µM
[6]
  AUC: 0.988
  IC50: > 32 µM
[7]
  AUC: 0.988
  IC50: > 10.2 µM

## NCI-H2452 (mesothelioma, adherent)
[1]
  AUC: 0.935
  IC50: > 5.12 µM
[2]
  AUC: 0.984
  IC50: > 1.02 µM
[3]; screen: GDSC drug entry 1014
  AUC: 0.856
  IC50: > 5 µM
[3]; screen: GDSC drug entry 1526
  AUC: 0.843
  IC50: 4.58 µM
[4]
  AUC: 0.697
  IC50: 1.28 µM
[5]
  AUC: 0.955
  IC50: > 16 µM
[6]
  AUC: 0.955
  IC50: > 32 µM
[7]
  AUC: 0.984
  IC50: > 10.2 µM

## NCI-SNU-1 (stomach, suspension)
[1]
  AUC: 0.495
  IC50: 0.31 µM
[2]
  AUC: 0.952
  IC50: > 1.02 µM
[3]; screen: GDSC drug entry 1014
  AUC: 0.977
  IC50: > 5 µM
[3]; screen: GDSC drug entry 1526
  AUC: 0.95
  IC50: > 5 µM
[4]
  AUC: 0.57
  IC50: 0.499 µM
[5]
  AUC: 0.788
  IC50: 7.26 µM
[6]
  AUC: 0.721
  IC50: 8.69 µM
[7]
  AUC: 0.914
  IC50: > 10.2 µM

## NCI-SNU-5 (stomach, suspension)
[1]
  AUC: 0.86
  IC50: 4.41 µM
[2]
  AUC: 0.989
  IC50: > 1.02 µM
[3]; screen: GDSC drug entry 1014
  AUC: 0.695
  IC50: 1.11 µM
[3]; screen: GDSC drug entry 1526
  AUC: 0.906
  IC50: > 5 µM
[4]
  AUC: 0.726
  IC50: 1.42 µM
[5]
  AUC: 0.986
  IC50: > 16 µM
[6]
  AUC: 0.884
  IC50: > 32 µM
[7]
  AUC: 0.989
  IC50: > 10.2 µM

## NCI-SNU-16 (stomach, suspension)
[1]
  AUC: 0.897
  IC50: 5.09 µM
[2]
  AUC: 0.988
  IC50: > 1.02 µM
[3]; screen: GDSC drug entry 1014
  AUC: 0.989
  IC50: > 5 µM
[4]
  AUC: 0.765
  IC50: 1.66 µM
[5]
  AUC: 0.991
  IC50: > 16 µM
[6]
  AUC: 0.979
  IC50: > 32 µM
[7]
  AUC: 0.991
  IC50: > 10.2 µM

## NEC8 (testis, adherent)
[1]
  AUC: 0.479
  IC50: 0.283 µM
[2]
  AUC: 0.991
  IC50: > 1.02 µM
[3]; screen: GDSC drug entry 1014
  AUC: 0.908
  IC50: > 5 µM
[3]; screen: GDSC drug entry 1526
  AUC: 0.973
  IC50: > 5 µM
[4]
  AUC: 0.592
  IC50: 0.548 µM
[5]
  AUC: 0.704
  IC50: 3.38 µM
[6]
  AUC: 0.393
  IC50: 1.07 µM
[7]
  AUC: 0.921
  IC50: > 10.2 µM

## NH-12 (neuroblastoma, adherent)
[1]
  AUC: 0.497
  IC50: 0.314 µM
[2]
  AUC: 0.97
  IC50: > 1.02 µM
[3]; screen: GDSC drug entry 1014
  AUC: 0.698
[3]; screen: GDSC drug entry 1526
  AUC: 0.85
  IC50: 4.53 µM
[4]
  AUC: 0.557
[5]
  AUC: 0.718
  IC50: 4.5 µM
[6]
  AUC: 0.691
  IC50: 7.4 µM
[7]
  AUC: 0.898
  IC50: > 10.2 µM

## NKM-1 (acute myeloid leukaemia, suspension)
[1]
  AUC: 0.369
  IC50: 0.137 µM
[2]
  AUC: 0.173
  IC50: 0.00629 µM
[3]; screen: GDSC drug entry 1014
  AUC: 0.739
  IC50: 1.54 µM
[3]; screen: GDSC drug entry 1526
  AUC: 0.769
  IC50: 1.94 µM
[4]
  AUC: 0.546
[5]
  AUC: 0.803
  IC50: 8.23 µM
[6]
  AUC: 0.404
  IC50: 1.08 µM
[7]
  AUC: 0.896
  IC50: > 10.2 µM

## NMC-G1 (glioma, adherent)
[1]
  AUC: 0.679
  IC50: 1.14 µM
[2]
  AUC: 0.98
  IC50: > 1.02 µM
[3]; screen: GDSC drug entry 1014
  AUC: 0.817
  IC50: 3.64 µM
[3]; screen: GDSC drug entry 1526
  AUC: 0.778
  IC50: 2.52 µM
[4]
  AUC: 0.637
  IC50: 0.836 µM
[5]
  AUC: 0.751
  IC50: 6.35 µM
[6]
  AUC: 0.864
  IC50: > 32 µM
[7]
  AUC: 0.971
  IC50: > 10.2 µM

## NOS-1 (osteosarcoma, adherent)
[1]
  AUC: 0.477
  IC50: 0.273 µM
[2]
  AUC: 0.837
  IC50: 0.919 µM
[3]; screen: GDSC drug entry 1014
  AUC: 0.831
  IC50: 4.2 µM
[3]; screen: GDSC drug entry 1526
  AUC: 0.863
  IC50: > 5 µM
[4]
  AUC: 0.514
  IC50: 0.352 µM
[5]
  AUC: 0.621
  IC50: 2.32 µM
[6]
  AUC: 0.824
  IC50: 25.2 µM
[7]
  AUC: 0.868
  IC50: > 10.2 µM

## NTERA-2 cl.D1 (testis, adherent)
[1]
  AUC: 0.441
  IC50: 0.221 µM
[2]
  AUC: 0.983
  IC50: > 1.02 µM
[3]; screen: GDSC drug entry 1526
  AUC: 0.881
  IC50: > 5 µM
[4]
  AUC: 0.537
  IC50: 0.404 µM
[5]
  AUC: 0.798
  IC50: 7.54 µM
[6]
  AUC: 0.925
  IC50: > 32 µM
[7]
  AUC: 0.926
  IC50: > 10.2 µM

## NU-DUL-1 (B-cell lymphoma, suspension)
[1]
  AUC: 0.126
  IC50: 0.0304 µM
[2]
  AUC: 0.99
  IC50: > 1.02 µM
[3]; screen: GDSC drug entry 1014
  AUC: 0.87
  IC50: 3.18 µM
[3]; screen: GDSC drug entry 1526
  AUC: 0.992
  IC50: > 5 µM
[4]
  AUC: 0.608
  IC50: 0.596 µM
[5]
  AUC: 0.628
  IC50: 2.09 µM
[6]
  AUC: 0.445
  IC50: 1.46 µM
[7]
  AUC: 0.628
  IC50: 1.33 µM

## NUGC-3 (stomach, adherent)
[1]
  AUC: 0.573
  IC50: 0.519 µM
[2]
  AUC: 0.983
  IC50: > 1.02 µM
[3]; screen: GDSC drug entry 1014
  AUC: 0.803
  IC50: 2.84 µM
[3]; screen: GDSC drug entry 1526
  AUC: 0.793
  IC50: 2.6 µM
[4]
  AUC: 0.581
  IC50: 0.547 µM
[5]
  AUC: 0.732
  IC50: 5.01 µM
[6]
  AUC: 0.916
  IC50: > 32 µM
[7]
  AUC: 0.893
  IC50: > 10.2 µM

## NUGC-4 (stomach, adherent)
[1]
  AUC: 0.309
  IC50: 0.0934 µM
[2]
  AUC: 0.988
  IC50: > 1.02 µM
[3]; screen: GDSC drug entry 1014
  AUC: 0.854
  IC50: 3.95 µM
[3]; screen: GDSC drug entry 1526
  AUC: 0.518
  IC50: 0.351 µM
[4]
  AUC: 0.741
  IC50: 1.57 µM
[5]
  AUC: 0.827
  IC50: 9.76 µM
[6]
  AUC: 0.801
  IC50: 15.6 µM
[7]
  AUC: 0.984
  IC50: > 10.2 µM

## NY (osteosarcoma, adherent)
[1]
  AUC: 0.983
  IC50: > 5.12 µM
[2]
  AUC: 0.989
  IC50: > 1.02 µM
[3]; screen: GDSC drug entry 1014
  AUC: 0.947
  IC50: > 5 µM
[3]; screen: GDSC drug entry 1526
  AUC: 0.925
  IC50: > 5 µM
[4]
  AUC: 0.551
  IC50: 0.441 µM
[5]
  AUC: 0.82
  IC50: 9.01 µM
[6]
  AUC: 0.962
  IC50: > 32 µM
[7]
  AUC: 0.97
  IC50: > 10.2 µM

## OAW-28 (ovary, adherent)
[1]
  AUC: 0.32
  IC50: 0.087 µM
[2]
  AUC: 0.979
  IC50: > 1.02 µM
[3]; screen: GDSC drug entry 1014
  AUC: 0.966
  IC50: > 5 µM
[3]; screen: GDSC drug entry 1526
  AUC: 0.974
  IC50: > 5 µM
[4]
  AUC: 0.653
  IC50: 0.954 µM
[5]
  AUC: 0.871
  IC50: > 16 µM
[6]
  AUC: 0.947
  IC50: > 32 µM
[7]
  AUC: 0.909
  IC50: > 10.2 µM
